Measured values: the supplement of paper PMC7826260
Some of the results follow. Viral Rep nickase domains cut single-stranded DNA in vitro for 1 h at 37 °C with 3 µM enzyme; only the middle of the 90-letter strands is printed. Values are log2 of uncut reads against the no-enzyme pool; uncut sequences lie near 0, cut ones below; no hit call is given. Because reads are shares of a total, they shift together, so uncut sequences can rise above 0 when many others are cut.

Key:
Experiment in all cases: uncleaved DNA left, log2 of reads against the no-enzyme library (log2 ratio); higher = less cleavage (more negative = more Rep cleavage of the k-mer); sequences stand for … in CTCGTCCG…ACCGGAGA
[1] = tested on: T1, Rep nickase domain of Muscovy duck circovirus
T1 sequence (Rep 1-111, printed without the tag): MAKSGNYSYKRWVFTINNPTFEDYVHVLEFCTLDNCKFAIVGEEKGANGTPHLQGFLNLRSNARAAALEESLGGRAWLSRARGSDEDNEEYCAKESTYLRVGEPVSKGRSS
Experimental: (§1)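 A pool of 90-nt single-stranded DNAs with seven random bases just before the constant AC of the nick site (name = the seven bases) was cut by 3 µM recombinant His6-SUMO-tagged Rep nickase domain (300 nM DNA, 50 mM HEPES pH 8.0, 50 mM NaCl, 1 mM MnCl2, 1 h, 37 °C, three replicates). Uncut DNA was amplified and sequenced.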

[2] = tested on: T2, Rep nickase domain of banana bunchy top virus
T2 sequence (Rep 1-94, printed without the tag): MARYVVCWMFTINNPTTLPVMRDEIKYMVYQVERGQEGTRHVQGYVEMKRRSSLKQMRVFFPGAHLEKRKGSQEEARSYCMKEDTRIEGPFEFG
Experimental: as §1

[3] = tested on: T3, Rep nickase domain of cabbage leaf curl virus
T3 sequence (Rep 1-116, printed without the tag): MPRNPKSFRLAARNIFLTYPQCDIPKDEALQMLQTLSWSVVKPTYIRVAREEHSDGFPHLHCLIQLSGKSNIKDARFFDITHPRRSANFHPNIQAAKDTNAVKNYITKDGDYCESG
Experimental: as §1

[4] = tested on: T4, Rep nickase domain of chickpea chlorotic dwarf virus
T4 sequence (Rep 1-124, printed without the tag): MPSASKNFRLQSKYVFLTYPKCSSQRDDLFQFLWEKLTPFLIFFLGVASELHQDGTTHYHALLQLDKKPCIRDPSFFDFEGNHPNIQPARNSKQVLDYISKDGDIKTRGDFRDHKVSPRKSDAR
Experimental: as §1

[5] = tested on: T5, Rep nickase domain of faba bean necrotic yellows virus
T5 sequence (Rep 1-98, printed without the tag): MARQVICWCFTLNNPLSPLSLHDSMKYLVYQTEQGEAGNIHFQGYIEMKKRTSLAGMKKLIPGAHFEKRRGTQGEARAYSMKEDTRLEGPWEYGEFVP
Experimental: as §1

[6] = tested on: T6, Rep nickase domain of maize striate mosaic virus
T6 sequence (Rep 1-117, printed without the tag): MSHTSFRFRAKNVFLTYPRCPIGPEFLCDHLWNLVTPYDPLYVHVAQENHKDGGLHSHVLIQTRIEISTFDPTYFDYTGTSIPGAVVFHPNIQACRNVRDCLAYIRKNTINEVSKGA
Experimental: as §1

[7] = tested on: T7, Rep nickase domain of porcine circovirus 2
T7 sequence (Rep 2-116, printed without the tag): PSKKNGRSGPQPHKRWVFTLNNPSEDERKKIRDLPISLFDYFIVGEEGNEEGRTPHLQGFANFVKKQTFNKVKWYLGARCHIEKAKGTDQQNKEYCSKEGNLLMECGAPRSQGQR
Experimental: as §1

[8] = tested on: T8, Rep nickase domain of tomato golden mosaic virus
T8 sequence (Rep 1-124, printed without the tag): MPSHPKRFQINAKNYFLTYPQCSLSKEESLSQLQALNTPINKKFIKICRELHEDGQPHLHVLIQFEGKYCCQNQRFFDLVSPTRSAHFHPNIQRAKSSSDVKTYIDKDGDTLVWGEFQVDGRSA
Experimental: as §1

[9] = tested on: T9, Rep nickase domain of tomato yellow leaf curl virus
T9 sequence (Rep 1-136, printed without the tag): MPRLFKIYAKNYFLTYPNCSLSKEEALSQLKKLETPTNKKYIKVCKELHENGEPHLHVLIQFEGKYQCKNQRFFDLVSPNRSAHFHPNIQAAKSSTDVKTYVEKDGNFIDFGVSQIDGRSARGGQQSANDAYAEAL
Experimental: as §1

[10] = tested on: T10, Rep nickase domain of wheat dwarf virus
T10 sequence (Rep 1-137, printed without the tag): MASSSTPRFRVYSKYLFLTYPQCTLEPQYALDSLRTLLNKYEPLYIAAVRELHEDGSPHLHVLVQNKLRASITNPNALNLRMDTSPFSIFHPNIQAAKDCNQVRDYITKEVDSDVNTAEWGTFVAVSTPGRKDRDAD
Experimental: as §1

Sequence	uncleaved DNA left (log2) [1]	uncleaved DNA left (log2) [2]	uncleaved DNA left (log2) [3]	uncleaved DNA left (log2) [4]	uncleaved DNA left (log2) [5]	uncleaved DNA left (log2) [6]	uncleaved DNA left (log2) [7]	uncleaved DNA left (log2) [8]	uncleaved DNA left (log2) [9]	uncleaved DNA left (log2) [10]
GTACTGT	-0.0609	0.0291	0.223	0.687	0.0856	1.64	-0.00267	0.0636	0.108	0.1
CGATAAC	0.0265	-0.00878	-0.431	-1.24	0.0379	-0.473	0.00955	0.0754	-0.00206	0.0414
AGCAGAT	0.0693	0.177	0.18	0.89	0.119	1.46	0.124	0.136	-0.0305	0.102
TAGACGG	0.0166	0.0673	0.332	1.11	0.0784	1.78	0.128	0.053	-0.0325	-0.000274
CGGAAAA	-0.16	-0.0725	0.113	0.403	-0.147	-0.113	-0.0715	-0.0624	-0.0105	0.0263
ATGTGGG	0.149	0.00421	-0.609	-0.601	0.0629	-0.837	0.176	0.0723	0.133	-0.121
TAAACAA	-0.0982	-0.0248	-0.366	-2.43	-0.0365	-0.53	0.033	-0.0456	-0.00693	-0.146
GATATTT	-0.117	-1.21	0.213	-1.02	0.0854	1.14	-1.76	0.0376	0.125	0.0359
TCATGAA	0.0343	-0.0746	-0.0915	-0.441	0.104	-0.688	-0.148	0.0549	0.0269	-0.0348
GTCCTAC	-0.0989	-0.102	0.165	0.388	-0.235	1.48	-0.289	-0.136	-0.156	-0.0956
TCAAACT	-0.101	-0.102	-0.241	-2.84	0.0456	-0.784	-0.35	-0.0993	0.0156	-0.129
CACATCC	0.069	-0.04	-0.0638	-0.258	-0.0215	-0.585	0.0111	-0.0883	-0.0288	-0.00715
CTCGATT	-0.0033	-0.346	-0.0437	-2.15	0.0344	-0.349	-2.35	-0.149	-0.0361	0.109
CAGCTTT	-0.0273	-0.368	-0.797	-2.33	-0.211	-0.646	-3.69	-0.102	0.00382	-0.299
CTACTTT	-0.11	-0.0226	-0.442	-2.71	0.0587	-0.517	-0.376	-0.0574	-0.0813	-0.219
